From ChEMBL document CHEMBL1201862, “PubChem BioAssay data set” (2004)
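These data come from cells grown in 96-well plates and exposed to compound for 48 hours at five concentrations. Abbreviation: GI50, concentration required for 50% inhibition of growth.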 Activity calls are given as the source filed them. No stated cut-off is given here; in the data, active = GI50 up to about 1.1 µM and inactive = higher. Numbered stars: 1 amine (or outer) side, 2 acyl side, 3 side chain; on linkers, the order of the positions; unused ones are H or OH. Bridge positions count the residues as written; N and C are the ends. Square brackets hold non-standard residues; d marks the D form. Peptide text beside a SMILES is read from it. * marks the point of attachment. ξ: configuration not given here. X32 = CC[C@H](C)[C@@H](N[*:1])[C@@H](O)CC(=O)O[C@H](C(=O)[C@H](C)C(=O)[*:2])C(C)C; X30 = CCC(C)C(N[*:1])C(O)CC(=O)O[C@H](C(=O)C(C)C(=O)[*:2])C(C)C; Phe(4-NO2) = N[CH](Cc1ccc([N+](=O)[O-])cc1)C(=O)O; X31 = O=C(C(CCCCNO[*:3])N[*:1])[*:2]; 2Nal = N[CH](Cc1ccc2ccccc2c1)C(=O)O; Fmoc = O=C(OCC1c2ccccc2-c2ccccc21)*; NMeY = CN[C@@H](Cc1ccc(O)cc1)C(=O)O; Pen = CC(C)(S)[C@H](N)C(=O)O; ξNMeL = CNC(CC(C)C)C(=O)O; Ac5c = NC1(C(=O)O)CCCC1; Cbz = O=C(OCc1ccccc1)*; Dab = NCC[CH](N)C(=O)O; Boc = CC(C)(C)OC(=O)*; ξL = CC(C)CC(N)C(=O)O; Aib = CC(C)(N)C(=O)O; ξT = CC(O)C(N)C(=O)O; OBn = c1ccc(CO*)cc1; Bn = c1ccc(C*)cc1; OtBu = CC(C)(C)O*; βAla = NCCC(=O)O; tBu = CC(C)(C)*; CH2Cl = ClC*

The compounds below were run on NCI-H322M (assay: NCI anticancer screen, dose series, 48 h).

Row | SMILES | GI50
1 | CCOC(=O)CCC(NC(=O)OCc1ccccc1)C(=O)NC(CCC(=O)OCC)C(=O)NC(CCC(=O)OCC)C(=O)NC(CCC(=O)OCC)C(=O)NC(CCC(=O)OCC)C(=O)NC(Cc1ccc([N+](=O)[O-])cc1)C(=O)NC(CCC(=O)OCC)C(=O)NC(CCC(=O)OCC)C(=O)NC(CCC(=O)OCC)C(=O)NC(CCC(=O)OCC)C(=O)NC(CCC(=O)OCC)C(=O)OCC (configuration not stated) (Cbz-E(OEt)E(OEt)E(OEt)E(OEt)E(OEt)[Phe(4-NO2)]E(OEt)E(OEt)E(OEt)E(OEt)E(OEt)-OEt; configuration not given here) | inactive: > 50 µM
2 | CCOC(=O)CCC(NC(=O)CNC(=O)CNC(=O)C(CCC(=O)OCC)NC(=O)C(CCC(=O)OCC)NC(=O)C(CCC(=O)OCC)NC(=O)OCc1ccccc1)C(=O)NC(CCC(=O)OCC)C(=O)NC(CCC(=O)OCC)C(=O)OCC (configuration not stated) (Cbz-E(OEt)E(OEt)E(OEt)GGE(OEt)E(OEt)E(OEt)-OEt; configuration not given here) | inactive: > 75 µM
3 | CC(OC(C)(C)C)C(NC(=O)C(CCCCNC(=O)OC(C)(C)C)NC(=O)C(Cc1c[nH]c2ccccc12)NC(=O)C(Cc1ccccc1)NC(=O)OCc1ccccc1)C(=O)NC(Cc1ccccc1)C(=O)O (configuration not stated) (Cbz-FWK(Boc)T(tBu)F-OH; configuration not given here) | inactive: 38.1 µM
4 | COC(=O)C1(NC(=O)C(Cc2ccccc2)NC(=O)C(NC(=O)C(CCCCNC(=O)OC(C)(C)C)NC(=O)C(Cc2c[nH]c3ccccc23)NC(=O)C(Cc2ccccc2)NC(=O)OCc2ccccc2)C(C)OC(C)(C)C)CCCC1 (configuration not stated) (Cbz-FWK(Boc)T(tBu)F[Ac5c]-OMe; configuration not given here) | inactive: > 100 µM
5 | CCOC(=O)CCC(NC(=O)OCc1ccccc1)C(=O)NC(CCC(=O)OCC)C(=O)OCC (configuration not stated) (Cbz-Glu(OEt)-Glu(OEt)-OEt; configuration not given here) | inactive: > 100 µM
6 | O=C(O)CCC(NC(=O)OCc1ccccc1)C(=O)NC(Cc1c[nH]cn1)C(=O)O (stereo not drawn) (Cbz-Glu-His-OH; configuration not given here) | inactive: > 100 µM
7 | CNC(=O)C1CCCCNC(=O)CCC(NC(=O)OCc2ccccc2)C(=O)N1 (stereo not drawn) (Cbz-Glu-Lys-NHMe; lactam 1-2; configuration not given here) | inactive: > 100 µM
8 | COC(=O)C1CCCCNC(=O)CCC(NC(=O)OCc2ccccc2)C(=O)N1 (stereo not drawn) (Cbz-Glu-Lys-OMe; lactam 1-2; configuration not given here) | inactive: > 100 µM
9 | CC(C)CC(NC(=O)OCc1ccccc1)C(=O)NC(Cc1ccccc1)C(=O)CCl (stereo not drawn) (Cbz-Leu-Phe-CH2Cl; configuration not given here) | inactive: 28.8 µM
10 | CCOC(=O)CCC(NC(=O)C(Cc1ccccc1)NC(=O)OCc1ccccc1)C(=O)OCC (stereo not drawn) (Cbz-Phe-Glu(OEt)-OEt; configuration not given here) | inactive: 17.5 µM
11 | COC(=O)C(Cc1ccc(O)cc1)NC(=O)C(COCc1ccccc1)NC(=O)OCc1ccccc1 (configuration not stated) (Cbz-Ser(Bn)-Tyr-OMe; configuration not given here) | inactive: 20 µM
12 | CCOC(=O)CNC(=O)C(C)NC(=O)C(NC(=O)OCc1ccccc1)C(C)C (stereo not drawn) (Cbz-Val-Ala-Gly-OEt; configuration not given here) | inactive: > 100 µM
13 | CC(NC(=O)C(NC(=O)OCc1ccccc1)C(C)C)C(=O)NCC(=O)O (stereo not drawn) (Cbz-Val-Ala-Gly-OH; configuration not given here) | inactive: > 100 µM
14 | CC(C)CC1NC(=O)C(Cc2ccccc2)NC(=O)C(Cc2ccccc2)NC(=O)C(NC(=O)C(Cc2ccc(OCc3ccccc3)cc2)NC(=O)OCc2ccccc2)CCNC1=O (configuration not stated) (Cbz-Y(Bn)[Dab]FFL; lactam 2-C; configuration not given here) | inactive: > 100 µM
15 | NC(=O)CNC(=O)C1CCCN1C(=O)C1CCCCNOC(=O)CCC(NC(=O)OCC2c3ccccc3-c3ccccc32)C(=O)NC(Cc2c[nH]c3ccccc23)C(=O)N1 (configuration not stated) (Fmoc-EW[X31]PG-NH2; ester 1-3; configuration not given here) | inactive: > 100 µM
16 | CC(C)(C)OC(=O)NCCCCC(NC(=O)OCC1c2ccccc2-c2ccccc21)C(=O)N1CCCC1C(=O)NCC(N)=O (stereo not drawn) (Fmoc-Lys(Boc)-Pro-Gly-NH2; configuration not given here) | inactive: > 100 µM
17 | CC(OC(C)(C)C)C(NC(=O)OCC1c2ccccc2-c2ccccc21)C(=O)NC(Cc1ccccc1)C(=O)OCc1ccccc1 (configuration not stated) (Fmoc-Thr(tBu)-Phe-OBn; configuration not given here) | inactive: > 100 µM
18 | CC(C)(C)OC(=O)NCCCCC(NC(=O)C(Cc1c[nH]c2ccccc12)NC(=O)OCC1c2ccccc2-c2ccccc21)C(=O)O (configuration not stated) (Fmoc-Trp-Lys(Boc)-OH; configuration not given here) | inactive: 32.2 µM
19 | CC(C)C(NC(=O)OCC1c2ccccc2-c2ccccc21)C(=O)NC(CCC(=O)OC(C)(C)C)C(=O)OC(C)(C)C (configuration not stated) (Fmoc-Val-Glu(OtBu)-OtBu; configuration not given here) | inactive: > 100 µM
20 | COC(=O)C1CCC(=O)NCCCCC(NC(=O)C(N)CC(=O)O)C(=O)N1 (stereo not drawn) (H-Asp-Lys-Glu-OMe; lactam 2-3; configuration not given here) | inactive: > 100 µM
21 | CC1(C)NC(=O)C(NC(=O)C(N)CC(=O)O)CCCCNC(=O)CCNC1=O (configuration not stated) (H-DK[Aib][βAla]; lactam 2-C; configuration not given here) | inactive: > 100 µM
22 | CC(NC(=O)C(N)Cc1ccccc1)C(=O)NC(Cc1ccc(O)cc1)C(=O)NC(Cc1c[nH]c2ccccc12)C(=O)NC(CCCCN)C(=O)NC(C(=O)NC(C)C(=O)NC(Cc1ccc2ccccc2c1)C(N)=O)C(C)C (configuration not stated) (H-FAYWKVA[2Nal]-NH2; configuration not given here) | inactive: > 12.5 µM
23 | CCC(C)C(NC(=O)C(NC(=O)C(CC(N)=O)NC(=O)CN)C(C)O)C(=O)NC(C(=O)NC(C)C(=O)NC(C(=O)NC(CCC(=O)O)C(=O)NC(CC(C)C)C(=O)NC(CC(=O)O)C(=O)NC(C(=O)NC(Cc1ccc(O)cc1)C(=O)N1CCCC1C(=O)O)C(C)O)C(C)C)C(C)C (configuration not stated) (H-GNTIVAVELDTYP-OH; configuration not given here) | inactive: > 50 µM
24 | CC(OC(C)(C)C)C(NC(=O)C(N)CCCCNC(=O)OC(C)(C)C)C(=O)NC(Cc1ccccc1)C(=O)O (configuration not stated) (H-Lys(Boc)-Thr(tBu)-Phe-OH; configuration not given here) | inactive: > 100 µM
25 | CSCC[C@H](NC(=O)C(CC(C)C)NC(=O)[C@H](Cc1c[nH]cn1)NC(=O)CNC(=O)[C@@H](NC(=O)[C@@H](C)NC(=O)[C@H](Cc1c[nH]c2ccccc12)NC(=O)[C@H](CCC(N)=O)NC(=O)[C@@H](N)CC(N)=O)C(C)(C)SC)C(N)=O (some centres not stated) (H-NQW[dA][Pen](Me)GH[ξL]M-NH2) | inactive: > 100 µM
26 | CCC(C)C1NC(=O)C(NC(=O)C(CC(C)C)N(C)C(=O)[C@@H]2CCCN2)C(C)OC(=O)[C@H](Cc2ccc(OC)cc2)N(C)C(=O)[C@@H]2CCCN2C(=O)[C@H](CC(C)C)NC(=O)C(C)C(=O)[C@H](C(C)C)OC(=O)CC1O (some centres not stated) (H-P[ξNMeL][ξT][X30]LP[NMeY](Me); ester 3-C) | active: 0.00103 µM
27 | CC[C@H](C)[C@H]1NC(=O)[C@@H](N)[C@@H](C)OC(=O)[C@H](Cc2ccc(OC)cc2)N(C)C(=O)[C@@H]2CCCN2C(=O)[C@H](CC(C)C)NC(=O)[C@@H](C)C(=O)[C@H](C(C)C)OC(=O)C[C@@H]1O (H-T[X32]LP[NMeY](Me); ester 1-C) | inactive: 22.7 µM
